# Reference: the supplement of paper PMC12217912
# The list shows a part of the results. The full chains were built here from the parent and the listed change. Values near 0.05 are background.
# B1: TEV protease; numbered along this chain (parent)
# chain: MGESLFKGPRDYNPISSSICHLTNESDGHTTSLYGIGFGPFIITNKHLFRRNNGTLVVQSLHGVFKVKDTTTLQQHLVDGRDMIIIRMPKDFPPFPQKLKFREPQREERICLVTTNFQTKSMSSMVSDTSCTFPSGDGIFWKHWIQTKDGQCGSPLVSTRDGFIVGIHSASNFTNTNNYFTSVPKNFMELLTNQEAQQWVSGWRLNADSVLWGGHKVFMVKPEEPFQPVKEATQL
# Variants of: B1
# Assay: raw area under fraction-flipped curve 0-4 h after induction (AUC4h, not background-subtracted), DNA-recorder readout of cleavage of the substrate (dimensionless); higher = more cleavage of the substrate by the protease variant
# Details: temperature: 34 °C; time window: 0-4 h after rhamnose induction
# Protocol: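 In vivo DNA recorder in E. coli TOP10(DE3) ΔrhaA at 34 °C. Each TEVp single-site mutant (parent TEVp 0) is paired with a single-site variant of the 7-mer TEVs (canonical ENLYFQ|S). The substrate sits between flexible linkers in a Bxb1-sfGFP-TEVs-SsrA fusion, so cleavage stabilises Bxb1 and speeds flipping of a recombination array, read by NGS. The value is the raw area under the fraction-flipped curve over 0-4 h after rhamnose induction (AUC4h), with ≥20 reads per time point. It is not background-subtracted; inactive controls average about 0.047.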
# 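Also: Bxb1 expression induced with 0.2% (w/v) L-rhamnose at OD600 near 0.5, cultures sampled hourly, flipped fraction per protease–substrate barcode pair counted by paired-end Illumina sequencing.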
Variant,area with substrate EALYFQS,area with substrate EHLYFQS,area with substrate EILYFQS,area with substrate ELLYFQS,area with substrate EPLYFQS,area with substrate EQLYFQS,area with substrate ESLYFQS,area with substrate ETLYFQS,area with substrate EVLYFQS,area with substrate EYLYFQS,area with substrate ECLYFQS,area with substrate EELYFQS,area with substrate EKLYFQS,area with substrate EMLYFQS,area with substrate ERLYFQS,area with substrate EDLYFQS,area with substrate EFLYFQS,area with substrate EWLYFQS,area with substrate EGLYFQS
P155T,0.0486,0.0524,0.0587,0.0762,0.0719,0.0743,0.0722,0.0779,0.0628,0.0791,–,–,–,–,–,–,–,–,–
L191R,0.0499,–,0.0445,–,–,0.0757,0.0562,0.0517,0.0675,0.0709,0.042,0.063,0.0542,0.0508,0.0651,–,–,–,–
L191H,0.0645,0.0572,0.0585,0.0488,–,0.075,0.0651,0.0407,–,–,0.051,0.0635,0.0566,0.0652,0.0619,0.0763,0.0606,0.0637,–
L191W,0.0845,0.0597,–,–,0.113,0.0932,–,–,0.0982,–,0.0856,–,0.0981,–,–,0.0854,–,–,–
T159H,0.156,–,–,0.107,–,–,–,–,–,–,0.126,–,–,–,–,0.195,–,–,0.0881
W144E,0.092,–,0.0836,0.0653,0.0566,0.0904,0.0844,–,0.0741,–,0.0834,–,0.091,0.0814,0.0841,–,–,0.0793,–
G162E,0.151,0.125,–,–,0.0911,0.116,0.0825,–,0.0838,–,0.0905,0.106,0.1,0.0959,–,0.111,–,–,0.085
G162Y,0.109,–,0.0809,0.0774,0.0937,0.107,0.0961,0.0901,0.0917,–,0.105,0.0977,0.0936,0.0868,–,0.105,–,0.0636,–
V165K,0.052,0.0485,–,–,–,0.064,0.0591,0.0622,–,0.0597,–,–,0.0581,–,0.0484,0.046,0.0589,0.0662,0.0557
V165H,0.0497,–,–,–,0.0896,–,–,–,0.0562,–,–,–,0.0199,–,0.0548,0.0531,–,0.0299,–
V165Q,0.0465,0.106,–,0.0719,0.0475,–,0.0493,–,0.0692,0.0449,0.0469,0.0534,–,–,0.0678,0.0595,–,–,–
F187S,0.136,–,0.0688,–,–,0.0565,0.061,–,0.0497,0.0775,0.0628,0.0584,0.0623,–,0.0539,–,–,0.066,0.0653
F187K,0.0582,–,0.045,0.0397,0.0593,–,0.0671,–,0.036,–,0.06,–,–,–,0.0594,–,–,0.0627,0.0937
F187V,0.138,–,–,–,0.151,–,0.087,–,–,–,0.0607,–,0.0925,–,–,0.153,–,0.136,0.0726
S158T,0.108,–,–,–,0.0962,0.0782,0.106,–,0.0983,–,0.0801,–,0.092,–,–,–,–,–,–
S158C,0.0797,–,0.0874,0.0933,–,0.108,0.0937,–,0.0997,–,0.0887,–,–,–,0.0899,0.116,0.111,0.0853,0.069
